What was measured:
[1] = molecular target: T1, biotinylated human CTLA4-Fc protein (ACRO Biosystems, #CT4-H82F3) (human, UniProt P16410 36-161, biotinylated); experiment: competition ELISA: coated human B7-1-Fc, biotinylated human CTLA4-Fc, Experiment 2
T1 construct: Bought protein; also called human CTLA4 protein

[2] = molecular target: T2, human CTLA4 on CHO-K1/hCTLA4 cells (human, UniProt P16410 36-223); experiment: flow cytometry on CHO-K1/hCTLA4 cells, Experiment 2
T2 construct: whole, on cells; CHO-K1 cell line highly expressing human CTLA4; also called human CTLA4 cell

[3] = molecular target: T3, human 4-1BB (tumor necrosis factor receptor superfamily member 9) (human, UniProt Q07011 24-255); experiment: flow cytometry (FACS) on CHO-K1/hu 4-1BB cells
T3 construct: whole, on cells; also called hu 4-1BB; CD137
T3 sequence (Q07011 24-255): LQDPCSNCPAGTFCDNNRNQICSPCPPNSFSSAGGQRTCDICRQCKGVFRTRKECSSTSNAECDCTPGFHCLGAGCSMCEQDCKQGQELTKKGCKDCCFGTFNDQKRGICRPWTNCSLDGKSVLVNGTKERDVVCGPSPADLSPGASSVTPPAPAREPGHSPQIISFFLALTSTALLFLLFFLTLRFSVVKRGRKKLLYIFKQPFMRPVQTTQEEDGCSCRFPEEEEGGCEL

Binder	IC50 [1]	EC50 [2]	Maximum MFI [2]	EC50 [3]	Maximum MFI [3]
HER2xCTLA4 bispecific antibody molecule PR001592 (bispecific antibody, human IgG1, kappa, Structure 9 2xVH-IgG; PR000672 IgG (pertuzumab analog), PR000184 VH; first linker KL-H1_15-AS, second linker KL-H1_15-RT; Fc human IgG1 (S239D, I332E)) light: EVQLVESGGGLIQPGGSLRLSCAVSGFTVSKNYMSWVRQAPGKGLEWVSVVYSGGSKTYADSVKGRFTISRDNSKNTLYLQMNSLRAEDTAVYYCARAVPHSPSSFDIWGQGTMVTVSSKLEPKSSDKTHTPPPPPASDIQMTQSPSSLSASVGDRVTITCKASQDVSIGVAWYQQKPGKAPKLLIYSASYRYTGVPSRFSGSGSGTDFTLTISSLQPEDFATYYCQQYYIYPYTFGQGTKVEIKRTVAAPSVFIFPPSDEQLKSGTASVVCLLNNFYPREAKVQWKVDNALQSGNSQESVTEQDSKDSTYSLSSTLTLSKADYEKHKVYACEVTHQGLSSPVTKSFNRGEC heavy: EVQLVESGGGLIQPGGSLRLSCAVSGFTVSKNYMSWVRQAPGKGLEWVSVVYSGGSKTYADSVKGRFTISRDNSKNTLYLQMNSLRAEDTAVYYCARAVPHSPSSFDIWGQGTMVTVSSKLEPKSSDKTHTPPPPPRTEVQLVESGGGLVQPGGSLRLSCAASGFTFTDYTMDWVRQAPGKGLEWVADVNPNSGGSIYNQRFKGRFTLSVDRSKNTLYLQMNSLRAEDTAVYYCARNLGPSFYFDYWGQGTLVTVSSASTKGPSVFPLAPSSKSTSGGTAALGCLVKDYFPEPVTVSWNSGALTSGVHTFPAVLQSSGLYSLSSVVTVPSSSLGTQTYICNVNHKPSNTKVDKKV[human IgG1 Fc with changes not given here]	3.21 nM	10.4 nM	1300 MFI		
Anti-4-1BB 79B10G8D4, hIgG4 (S228P) (antibody, hIgG4 (S228P); also called PR000197) light: EFVMTQSPATLSVSPGERATLSCRASQSISSILAWYQQKPGQAPRLLIYGASTRATGIPARFSGSGSGTEFTLTISSLQSEDFAVYYCQQYYNWPLTFGGGTKVEIKRTVAAPSVFIFPPSDEQLKSGTASVVCLLNNFYPREAKVQWKVDNALQSGNSQESVTEQDSKDSTYSLSSTLTLSKADYEKHKVYACEVTHQGLSSPVTKSFNRGEC heavy: QVQLQQWGAGLLKPSETLSLTCAVYGGSFSGYYWSWIRQPPGKGLEWIGEINHSGSTDSNPSLKGRVTFSVDTSKNQFSLKLNSVTAADTAVYYCARLTGPFDYWGQGTLVTVSSASTKGPSVFPLAPCSRSTSESTAALGCLVKDYFPEPVTVSWNSGALTSGVHTFPAVLQSSGLYSLSSVVTVPSSSLGTKTYTCNVDHKPSNTKVDKRV[human IgG4 Fc with S228P (EU numbers) not given here]				0.673 nM	15500 MFI
Anti-4-1BB 79B10G8D4 (H: N52Q; L: F2I), hIgG4 (S228P) (antibody, hIgG4 (S228P); also called PR000448) light: EIVMTQSPATLSVSPGERATLSCRASQSISSILAWYQQKPGQAPRLLIYGASTRATGIPARFSGSGSGTEFTLTISSLQSEDFAVYYCQQYYNWPLTFGGGTKVEIKRTVAAPSVFIFPPSDEQLKSGTASVVCLLNNFYPREAKVQWKVDNALQSGNSQESVTEQDSKDSTYSLSSTLTLSKADYEKHKVYACEVTHQGLSSPVTKSFNRGEC heavy: QVQLQQWGAGLLKPSETLSLTCAVYGGSFSGYYWSWIRQPPGKGLEWIGEIQHSGSTDSNPSLKGRVTFSVDTSKNQFSLKLNSVTAADTAVYYCARLTGPFDYWGQGTLVTVSSASTKGPSVFPLAPCSRSTSESTAALGCLVKDYFPEPVTVSWNSGALTSGVHTFPAVLQSSGLYSLSSVVTVPSSSLGTKTYTCNVDHKPSNTKVDKRV[human IgG4 Fc with S228P (EU numbers) not given here]				0.947 nM	8180 MFI

Reference: patent US20230322953A1 (HARBOUR BIOMED SHANGHAI, published 2023)
